Measured values as given in the supplement of paper PMC3334620.
In all, about 33,000 sequences were measured (“E-score (-0.5 to 0.5)”: median about -0.056, highest 2% from about 0.38 on). The list shows a part of the results.

Each sequence was assayed against Stb4 (UniProt P50104) (assay: PBM E-score (8-mer binding enrichment) (E-score (-0.5 to 0.5)); higher = stronger / more preferred TF binding; most listed sequences are background and not binding sites). Conditions: protein concentration: 200 nM; construct: GST-DNA-binding domain.
Method in brief: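 For each ungapped eight-base word taken together with its reverse complement, the Universal PBM Analysis Suite assigned an E-score. Binding data came from GST-tagged yeast transcription factors, applied at about 100-200 nM, on universal all-10-mer Agilent arrays made double-stranded by primer extension. Fluorescent anti-GST marked bound protein, and scans were normalised with masliner.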

| Sequence | PBM E-score |
| --- | --- |
| ATGTTGCC | 0.125 |
| CAAGCCTG | -0.271 |
| ACTACAGT | -0.261 |
| TCATGTAA | -0.0942 |
| AAATGCGT | -0.129 |
| AGCGGCCC | 0.0308 |
| CATAGACA | -0.224 |
| ATTTGTAC | 0.00201 |
| GAGTCTGA | -0.146 |
| GGTCTCAA | -0.0398 |
| ATTATTAG | -0.082 |
| CCCAACAA | -0.178 |
| AGCATGCT | -0.233 |
| CGACACAG | 0.0241 |
| CCTAAACC | -0.0812 |
| CTAGATCC | 0.0786 |
| ACGGTGAA | -0.0472 |
| GTCGTCAC | -0.231 |
| GCCTGTGA | -0.349 |
| AGCACTTA | -0.0898 |
| ATTAGGTC | 0.0421 |
| ACCGCCGG | 0.283 |
| GAATTAAA | 0.129 |
| GTTGTTCA | 0.0713 |
| TAGTACTA | -0.304 |

| Sequence | PBM E-score |
| --- | --- |
| CTACGTTA | -0.0408 |
| TTCTCAAA | -0.221 |
| CCAGTTTC | -0.0376 |
| CACCCAGG | -0.115 |
| TCCAAGAA | -0.133 |
| AAGCTAAG | -0.0253 |
| CCACGGAG | 0.132 |
| CAAACTTA | -0.096 |
| ATTTTGGG | -0.0867 |
| CACATACA | -0.153 |
| AAGCTTAA | -0.125 |
| GCTCTGCA | -0.171 |
| CACCACGG | -0.0631 |
| AACTACCA | -0.189 |
| GGTCGTCA | -0.113 |
| CTAAACCC | 0.047 |
| AAAGATCG | -0.0762 |
| CGTCTCAG | -0.235 |
| ACCTCTCC | -0.0306 |
| CTTAATAC | -0.176 |
| AACTCGAG | -0.0743 |
| GAAGGGAA | -0.108 |
| GAATTTGA | 0.141 |
| TAAGACTA | -0.196 |
| GAGAATCC | 0.0305 |

| Sequence | PBM E-score |
| --- | --- |
| CAGGGTCC | -0.0926 |
| CAGATTAC | -0.027 |
| ACGATGTA | -0.222 |
| CGATGATA | 0.122 |
| CATAGCTC | -0.073 |
| CGAGCGTA | 0.0494 |
| ACAGTGGA | -0.005 |
| GTACAGTA | -0.134 |
| AACAGTGA | -0.0385 |
| CAGAAAGG | -0.148 |
| TTACGCAA | -0.0396 |
| AGTCACAG | -0.267 |
| CCCCCGCA | -0.158 |
| AACGCATA | 0.03 |
| CTGTGTTC | -0.0183 |
| TCCGAAGA | 0.458 |
| CAATACCC | 0.126 |
| ACCGACGG | 0.359 |
| CGCAATAG | -0.0449 |
| CGATGGCA | 0.0181 |
| CGGAGAAC | 0.162 |
| CAGGGAAG | -0.169 |
| TACGCTCA | -0.372 |
| GTGATAAA | -0.028 |
| GCGTCCAA | -0.252 |

| Sequence | PBM E-score |
| --- | --- |
| CTTCAATA | -0.0834 |
| TGGCGAAA | -0.11 |
| TAGCACAA | -0.27 |
| AGCTAATC | -0.0739 |
| TAGCCAGA | -0.109 |
| GTCCACGA | -0.137 |
| AGAGTCTG | -0.175 |
| ACGCTCGC | -0.227 |
| GGAGCTAC | 0.00778 |
| GAGATCTA | -0.103 |
| CATATGAA | -0.131 |
| GTACTCGA | -0.238 |
| TGTTACAA | -0.0172 |
| AATTGTAA | -0.126 |
| ACAGGGAA | -0.0341 |
| AGCCCAGC | 0.174 |
| TAGACGAA | -0.35 |
| AGAGTGCA | -0.117 |
| GAGTGTCA | 0.0457 |
| AAGAACCC | -0.0513 |
| ACCATAAA | -0.147 |
| CCCAATAC | -0.133 |
| GGAGTGTA | 0.0839 |
| ATTTACCC | 0.194 |
| GCCCACCA | -0.176 |

| Sequence | PBM E-score |
| --- | --- |
| AACTTGTA | -0.0932 |
| CCCAAGCG | -0.122 |
| CTTTGGTA | -0.0284 |
| ATTAACAC | 0.00046 |
| AGGAACGG | 0.149 |
| CTTAAAGA | 0.0139 |
| CATAACAG | -0.218 |
| CAAGAGTG | -0.228 |
| CGTCAACA | -0.123 |
| AGGTGATA | -0.225 |
| AGCTTAGA | -0.133 |
| TACGAAGA | -0.0932 |
| AGCTTACT | -0.123 |
| ACATATTG | -0.216 |
| AAGGCAGC | -0.192 |
| CCAGAAAG | -0.0194 |
| CACCCGGG | 0.323 |
| CCTGTCCG | 0.0761 |
| CGGGAGCC | 0.258 |
| GGAAGGCC | 0.121 |
| GTGCAAAC | -0.0575 |
| CATATGCA | -0.125 |
| CCTGCTTC | -0.0591 |
| GTGTAGCA | -0.0981 |
| ACCCAAAG | -0.161 |

| Sequence | PBM E-score |
| --- | --- |
| ATTCGGAG | 0.324 |
| CCTTGTAG | -0.0871 |
| GGGCCCGA | 0.278 |
| CATAATGA | -0.184 |
| ATTGTGCA | -0.126 |
| CTCTCAAG | -0.216 |
| GAAGTCAC | 0.0134 |
| AGCTCTTC | -0.018 |
| ATCGACTG | 0.0856 |
| CTCCCCCC | -0.156 |
| TATTTACA | -0.17 |
| CAGCAACA | -0.112 |
| AGGCACCC | -0.141 |
| CCGGGCAC | 0.283 |
| ATCAATCG | 0.0502 |
| CGATGGTC | -0.158 |
| AACACTCC | 0.0837 |
| AAAGCTCC | 0.0622 |
| CTCCGACC | 0.315 |
| AACGGGTG | 0.209 |
| ACCCGCTG | 0.119 |
| CCCCGGCG | 0.126 |
| AGCTAAGC | -0.279 |
| CAACTCCG | 0.237 |
| ATCCGCAA | 0.245 |

| Sequence | PBM E-score |
| --- | --- |
| AACGTAGA | 0.0138 |
| CTCTTGCC | 0.084 |
| CTTTTCGC | 0.0638 |
| TCAAAACA | -0.0957 |
| TCCGACAA | 0.355 |
| CCTGCCAC | -0.186 |
| TATAAGAA | -0.0781 |
| CGGGTGAG | 0.332 |
| ATGCTCTA | -0.18 |
| AATTTGTC | -0.117 |
| CTTATAAG | 0.174 |
| GAATGAAA | 0.073 |
| ACTAGATG | -0.242 |
| CGGTGTCA | 0.0521 |
| ATGGTCTG | -0.151 |
| CATTCGAA | -0.0572 |
| ATTCGTTG | 0.0153 |
| GATGTAAC | -0.0279 |
| GATGGGAC | -0.0311 |
| AAACGGGC | -0.0189 |
| TCACTCAA | -0.253 |
| ATATTTCG | 0.284 |
